# Measurements published in PubChem BioAssay AID1460 (National Center for Advancing Translational Sciences (NCATS), 2008).
# In all, about 270,000 compounds went through this assay and about 5,800 (2.1%) were called active. Inconclusive means that the source gave no clear call. Such entries were picked first, then a sample of the others. Calls come from the whole dose curve; as a rule, active = well fitted inhibition curve with a large enough effect; inconclusive = small, poorly fitted or top-dose-only effect; inactive = flat fitted curve, though single readings scatter. Potencies beside an inconclusive call are fits to weak or partial responses and may not hold up.
# Target: Microtubule-associated protein tau (Homo sapiens) (UniProt P10636)
# UniProt P10636, sequence (P10636 whole entry, looked up): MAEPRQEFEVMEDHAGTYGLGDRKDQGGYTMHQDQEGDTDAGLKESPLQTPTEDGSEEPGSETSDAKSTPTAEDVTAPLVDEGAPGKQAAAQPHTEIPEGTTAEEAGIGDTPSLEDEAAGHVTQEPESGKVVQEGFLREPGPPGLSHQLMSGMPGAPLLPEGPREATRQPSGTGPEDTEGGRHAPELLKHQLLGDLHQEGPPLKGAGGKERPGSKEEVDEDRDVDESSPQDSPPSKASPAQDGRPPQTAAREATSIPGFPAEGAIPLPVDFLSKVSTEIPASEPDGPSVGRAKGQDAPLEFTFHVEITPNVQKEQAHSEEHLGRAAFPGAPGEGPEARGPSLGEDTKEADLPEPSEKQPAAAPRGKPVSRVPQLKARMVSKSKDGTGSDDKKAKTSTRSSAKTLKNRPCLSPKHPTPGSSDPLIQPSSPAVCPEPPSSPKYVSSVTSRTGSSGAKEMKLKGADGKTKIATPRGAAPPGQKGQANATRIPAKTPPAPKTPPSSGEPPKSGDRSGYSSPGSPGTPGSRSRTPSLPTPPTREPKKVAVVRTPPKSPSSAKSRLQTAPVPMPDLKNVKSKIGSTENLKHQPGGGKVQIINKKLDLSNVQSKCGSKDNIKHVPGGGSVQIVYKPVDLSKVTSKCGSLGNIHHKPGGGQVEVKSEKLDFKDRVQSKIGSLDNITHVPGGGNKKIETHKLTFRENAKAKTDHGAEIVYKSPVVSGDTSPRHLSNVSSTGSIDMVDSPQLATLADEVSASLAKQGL
# Assay: qHTS for Inhibitors of Tau Fibril Formation, Thioflavin T Binding; note: nearly all actives have a fitted effect of over 55% in size
# Settings: recombinant tau K18 P301L, heparin-induced fibrillization, ThT fluorescence; series mostly up to 57.4 µM; activity, negative = inhibition: at the top concentration
# Outline: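 Fibril formation assay: tau K18 P301L at 15 uM with trace Alexa 594 label, heparin inducer 20 uM, pH 7 sodium acetate buffer, 37 C for 6 hr; endpoint ThT signal.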
# % is set by controls: 0 for no effect and ±100 for the full control effect; potency is the fitted concentration of half-maximal effect; tags give direction and shape of the fitted curve.
SMILES,Potency,"activity, negative = inhibition"
O=c1cc(CSc2ccc(Cl)cc2)[nH]c2[nH]n(-c3ccccc3)c(=O)c12,"inconclusive: 5.01 µM [inhibitor, partial curve]",–
CC(C)C(=O)N1CCc2cc(-c3csc(N)n3)ccc21,"inconclusive: 14.1 µM [inhibitor, partial curve]",–
CC/C(=N/Nc1cccc(C)c1)c1cnnc(SC)n1,"inconclusive: 4.47 µM [inhibitor, partial curve]",–
O=C(Nc1ccc(N2CCOCC2)cc1)c1ccc2nc(-c3ccco3)c(-c3ccco3)nc2c1,active: 2.51 µM,–
Cn1cc(CNC(=O)c2cc(-c3ccccc3)nc3ccc(Br)cc23)cn1,–,inactive: 2.13%
COc1ccc2nc(NC(=O)CN3CCN(C)CC3)sc2c1,–,inactive: -12.3%
CC1(C)CC(N2CCCCC2)=CC(=[N+]2CCCCC2)C1,–,inactive: -7.24%
Cc1nn(C)c(C)c1S(=O)(=O)N(CC(=O)N1CCc2ccccc2C1)c1ccc(C(C)C)cc1,"inconclusive: 39.8 µM [inhibitor, partial curve, poor fit]",–
Cc1ccccc1NC(=O)c1ccc(Nc2c([N+](=O)[O-])cc([N+](=O)[O-])c3ccccc23)cc1,"inconclusive: 3.55 µM [inhibitor, full curve]",–
CCc1ccc2nc(Nc3nc(COC)cc(=O)[nH]3)nc(C)c2c1,"inconclusive: 10 µM [inhibitor, partial curve]",–
CCOC(=O)CC(NC(=O)c1cccc2c1C(=O)N(Cc1cccnc1)C2)c1ccc(OCC)c(OC)c1 (stereo unspecified),–,inactive: -16.2%
COc1ccc2c(c1)CCc1c(C(=O)Nc3ccc(C#N)cc3)noc1-2,"inconclusive: 0.891 µM [inhibitor, partial curve]",–
Cn1cc(C=C2C(=O)CC(C)(C)CC2=O)c2ccccc21,"inconclusive: 14.1 µM [inhibitor, partial curve]",–
COc1cccc(/C=N/c2sc(Cc3ccccc3)c(C)c2C(N)=O)c1O,"inconclusive: 20 µM [inhibitor, partial curve]",–
COCCCNC(=S)Nc1ccccc1[N+](=O)[O-],–,inactive: 0.947%
O=C(NC(=S)Nc1nc2ccccc2s1)c1cccs1,"inconclusive: 5.01 µM [inhibitor, partial curve]",–
Cc1cccc(-n2c(C)n[nH]c2=S)c1C,–,inactive: 8.24%
CCOc1ccc(-n2c(SCc3nc(-c4ccc(OC)cc4)no3)nnc2-c2ccncc2)cc1,"inconclusive: 1 µM [inhibitor, full curve]",–
COc1ccc(/C=N\Nc2ccc([N+](=O)[O-])cc2)c(C(=O)O)c1OC,active: 12.6 µM,–
COc1ccc(Cl)cc1NC(=S)Nc1cccnc1,–,inactive: -6.3%
Fc1ccc(Nc2ccnc(Nc3ccc(F)cc3)n2)cc1,"inconclusive: 35.5 µM [inhibitor, single point]",–
Cn1cccc1/C=C1\SC(=O)N(c2ccccc2)C1=O,–,inactive: 5.71%
COc1cc(SC)ccc1C(=O)NCc1ccc(C)cc1,"inconclusive: 31.6 µM [inhibitor, partial curve]",–
Cc1c(C(=O)N2CCC(c3nc4ccccc4s3)CC2)oc2cc(Br)ccc12,"inconclusive: 31.6 µM [inhibitor, single point]",–

SMILES,Potency,"activity, negative = inhibition"
c1ccc(-c2ccc(-c3cnc4n3CCCCC4)cc2)cc1,"inconclusive: 22.4 µM [inhibitor, partial curve]",–
COC(=O)CCN1CCc2cc(N=Nc3ccc([N+](=O)[O-])cc3)ccc21,"inconclusive: 0.316 µM [inhibitor, full curve]",–
COc1ccc(-n2c(C)cc(C(=O)CSc3ccc(NC(C)=O)cc3)c2C)cc1,"inconclusive: 12.6 µM [inhibitor, partial curve]",–
COc1cc(/C=C(\NC(C)=O)C(=O)Nc2cccc(O)c2)ccc1OC(C)=O,"inconclusive: 20 µM [inhibitor, single point]",–
COc1cc(C2c3c(oc4cc(C)c(C)cc4c3=O)C(=O)N2CCCN2CCOCC2)ccc1O (stereo unspecified),"inconclusive: 17.8 µM [inhibitor, partial curve, poor fit]",–
Cc1cc(=O)oc2cc(OCc3ccc(C(=O)OCC(=O)Nc4ccccc4OC(F)F)cc3)ccc12,"inconclusive: 0.631 µM [inhibitor, full curve]",–
Cc1ccc2c(=O)c(C(=O)c3ccccc3)cn(CC(=O)Nc3ccc4c(c3)OCCO4)c2n1,–,inactive: 2.79%
CCOC(=O)N/N=C/c1ccc(N2CCOCC2)s1,"inconclusive: 31.6 µM [inhibitor, partial curve]",–
Cc1cccc2sc(N(CCCN(C)C)C(=O)c3cc4ccccc4oc3=O)nc12,"inconclusive: 8.91 µM [inhibitor, full curve, poor fit]",–
CCOC(=O)c1sc(N=NC2=C(O)CCCC2=O)c(C(=O)OCC)c1C,"inconclusive: 10 µM [inhibitor, partial curve]",–
Cc1nc2ccccc2n1CCc1nc2c3ccccc3nc(SCc3cccc(F)c3)n2n1,–,inactive: -15.6%
Cc1cccc(NCCNc2cccc(C)c2)c1,"inconclusive: 15.8 µM [inhibitor, partial curve]",–
COc1ccc(N2C(=O)CSC23C(=O)N(CC(=O)NC2CCCCC2)c2ccccc23)cc1 (stereo unspecified),–,inactive: 2.04%
CCc1nn(CC(=O)N2CCN(c3cccc(C)c3C)CC2)c(=O)c2cc3occc3n12,–,inactive: 1.21%
N#CC(C#N)=Cc1cn(-c2ncc(C(F)(F)F)cc2Cl)c2ccccc12,"inconclusive: 35.5 µM [inhibitor, partial curve]",–
CCOC(=O)c1[nH]c(C)c(CCC(=O)Nc2c(C)cc(C)cc2C)c1C,–,inactive: 1.31%
CCCn1c(SCc2nc(-c3ccccc3C)no2)nnc1-c1ccc(Cl)cc1,–,inactive: -14%
Cc1cccc(OCc2cc(=O)n3c(-c4ccccc4)csc3n2)c1C,"inconclusive: 22.4 µM [inhibitor, single point]",–
COc1ccc2oc(=O)c(/C(C)=N/Nc3nc(-c4cc(C)ccc4C)cs3)cc2c1,"inconclusive: 2.82 µM [inhibitor, partial curve]",–
CC(=O)c1ccc(N2CCN(S(=O)(=O)c3c(C)nc4sc(C)cn4c3=O)CC2)cc1,"inconclusive: 25.1 µM [inhibitor, single point]",–
COc1cccc(CN(C)C(=S)Nc2cccc(C)c2)c1,–,inactive: -5.79%
COc1ccc(N=C(N)SCc2ccccn2)cc1,"inconclusive: 15.8 µM [inhibitor, partial curve]",–
COc1ccc(NC(=O)CSc2c3c(nc4cc(Cl)ccc24)CCCC3)cc1OC,"inconclusive: 15.8 µM [inhibitor, single point]",–
O=C(NCCCO)/C(=C\c1ccco1)NC(=O)c1ccc(Br)o1,"inconclusive: 14.1 µM [inhibitor, single point]",–

SMILES,Potency,"activity, negative = inhibition"
S=C(NCCc1ccccc1)N1CCn2cccc2C1c1ccncc1 (stereo unspecified),"inconclusive: 10 µM [inhibitor, partial curve]",–
CCOC(=O)c1sc2nc(N3CCOCC3)c3c(c2c1N)CCN(Cc1ccccc1)C3,"inconclusive: 15.8 µM [inhibitor, partial curve]",–
Cc1ccc(C)c(OCc2nc3ccc(S(=O)(=O)Nc4c(C)n(C)n(-c5ccccc5)c4=O)cc3[nH]2)c1,"inconclusive: 25.1 µM [inhibitor, single point]",–
CCn1c(=O)cc(OCC(=O)O)c2ccccc21,"inconclusive: 14.1 µM [inhibitor, partial curve]",–
OC(CNCC1(N2CCCCC2)CCCCC1)COc1ccc(Cl)cc1Cl (stereo unspecified),"inconclusive: 6.31 µM [inhibitor, single point]",–
CC1=C/C(=N\OS(=O)(=O)c2ccccc2)C(C)=CC1=O,active: 14.1 µM,–
CC(C)(C)n1cnc2cc(NC(=O)c3cccs3)ccc21,"inconclusive: 28.2 µM [inhibitor, single point]",–
Cn1c(=O)n(C)c2cc(/C=N/NC(=O)c3ccc(Cl)cc3Cl)ccc21,"inconclusive: 39.8 µM [inhibitor, single point]",–
CCOc1ccccc1Oc1cn[nH]c1-c1ccc(OC)cc1O,"inconclusive: 35.5 µM [inhibitor, partial curve]",–
Cn1c(NCCCCO)nc2c1c(=O)n(Cc1ccc(Cl)cc1)c(=O)n2C,–,inactive: -5.64%
CCOc1cc(/C=C(\C#N)c2[nH]nc(N)c2C#N)ccc1O,active: 14.1 µM,–
COc1cccc(NC(=O)Nc2ccc3c(c2)nnn3C)c1,"inconclusive: 3.55 µM [inhibitor, full curve, poor fit]",–
COc1cccc(/C=N/NC(=O)c2cccs2)c1,"inconclusive: 0.562 µM [inhibitor, full curve, poor fit]",–
O=C1O/C(=C/Br)CCC1c1cccc2ccccc12 (stereo unspecified),active: 17.8 µM,–
CCCCCCCN1N=C(C)C(C(=O)c2ccccc2)C1=O (stereo unspecified),–,inactive: -6.33%
CCN=c1scc(-c2ccc(F)cc2)n1/N=C/c1ccccn1,"inconclusive: 14.1 µM [inhibitor, partial curve]",–
CCNc1nc(NCC)nc(N/N=C/c2ccc(O)c(O)c2)n1,"inconclusive: 12.6 µM [inhibitor, partial curve]",–
COc1ccc(OC)c(S(=O)(=O)N2CCC(C(=O)NCCc3ccccc3)CC2)c1,–,inactive: -1.13%
Cc1cnn(-c2cc(Oc3ccccc3)ncn2)c1,–,inactive: 3.06%
CCCCC(=O)Nc1nc2c(OC)cc([N+](=O)[O-])cc2s1,–,inactive: -11.2%
CCC(Oc1ccccc1)C(=O)Nc1ccc(O)c(-c2nc3cc(C)ccc3o2)c1 (stereo unspecified),–,inactive: 1.7%
CCC(C(=O)Nc1ccccc1C(=O)OC)n1c(C)c2cnn(-c3ccccc3)c(=O)c2c1C (stereo unspecified),–,inactive: -16.7%
NC(=O)CSc1oc(-c2ccco2)nc1S(=O)(=O)c1ccc(Br)cc1,"inconclusive: 20 µM [inhibitor, single point]",–
